We go through 84 variants from the RNAGym collection of RNA variant scans (doi:10.1073/pnas.2313332121).

First the molecules themselves.
B1: TPR 5TU (parent)
chain: GGAUCUUCUCGAUCUAACAAAAAAGACAAAUCUGCCACAAAGCUUGAGAGCAUCUUCGGAUGCAGAGGCGGCAGCCUUCGGUGGCGCGAUAGCGCCAACGUUCUCAACUAUGACACGCAAAACGCGUGCUCCGUUGAAUGGAGUUUAUCAUG

Variants at the background level are over-represented here.

The data set covers variants of B1. The data set can be described thus: polymerase ribozyme fitness, log enrichment relative to wild type (log ratio); higher = more active; in vitro selection for triplet polymerase activity. The method in brief: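 A single round of triplicate in vitro selection, including frozen incubation at −7 °C, was applied to PCR-built, transcribed mutant libraries of each subunit of a heterodimeric triplet polymerase ribozyme. Illumina sequencing of input and output libraries retained genotypes with ≥10 input reads and ≥1 read per output. Fitness is the base-2 logarithm of genotype enrichment divided by wild-type enrichment, from inverse-variance-weighted replicate averages.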
Consider C8U G25A A30G U61A G70A, for which the “polymerase ribozyme fitness (log ratio)” value was not above -4.2.
C8G C18U A22U G65C C75U C96G: the “polymerase ribozyme fitness (log ratio)” value is not above -4.2.
Consider U9C C54U C85A G136C, for which the “polymerase ribozyme fitness (log ratio)” value is not above -4.2.
As for U7A U53G G59C C75G C85A A91U C129A, the figure is not above -4.2.
In the case of C8G C54U U55A C93G A107C C116U it was not above -4.2.
As for C8A C10G U53A C57G C75G G83C U102A A121U U144A U145C, the “polymerase ribozyme fitness (log ratio)” value was not above -4.2.
In the case of U9C A22C G58A U61G G83A C116G it was not above -4.2; in that of C8G G74C A97U, not above -4.2.
As for C8U U15G A49G G59A A60G G70A G86C C93U A106G U135C, the figure is not above -4.2; as for U9C A22C C54U G71U G84A C95A A98U C108A C114U A115C, not above -4.2; as for C8U U13G A20U G62U C75A U77A G94A C96G A110U G112C, not above -4.2.
Consider U7G U9C C75U C87A A98U, for which the “polymerase ribozyme fitness (log ratio)” value is not above -4.2.
On to C8U G48U C85A C103G U144G U148C, for which the “polymerase ribozyme fitness (log ratio)” value is not above -4.2.
Turning to C8A C85G A121U, the “polymerase ribozyme fitness (log ratio)” value was not above -4.2.
As for C8A U45C A49C C69A G80C G88A A89G, the figure is not above -4.2; as for C8A A22C G42A C93U, not above -4.2.
As for C8U C14U A26G G68A G86C U145G, the figure is not above -4.2; as for C8U A21U G42A C54G A89U C96U G112U U144A, not above -4.2.
As for U7G U13A A17U A20C G50A G83U C116G A122U G128A G152C, the figure is not above -4.2.
For C8A A21G C54U C85G G100A, the “polymerase ribozyme fitness (log ratio)” value is not above -4.2.
On to C8G C27G C36G A39C C85A, for which the “polymerase ribozyme fitness (log ratio)” value was not above -4.2.
As to U7G A17U C36G U55A C79A C103A, the “polymerase ribozyme fitness (log ratio)” value is not above -4.2.
In the case of U9A U55A C85U G94A C114U G140C it was not above -4.2; in that of U7G C14G C43A G92A C96A A138U A142C U146A A147C, not above -4.2.
In the case of U9C A23U G58U A73U C79A G83C G86A A107G G141C it was not above -4.2.
For the variant C8A C10G C14G C18G C32U A47C A52C U82C C85G G133U U148C, the “polymerase ribozyme fitness (log ratio)” value was not above -4.2.
As for U9A A24G A40G C105U U111G U139C U144C A150C, the “polymerase ribozyme fitness (log ratio)” value was not above -4.2.
In the case of C8A G11C A29U C35U A49C A113U C114U it was not above -4.2.
In the case of U7G C63A C96G it was not above -4.2; in that of U7C A40U C87A, not above -4.2; in that of C8A A24C G25A A30G G50A A60G A115U, not above -4.2.
U7C G42A C85G U144C: the “polymerase ribozyme fitness (log ratio)” value is not above -4.2.
C8U A28U G58A G74C U127G G133C A142U C149G: the “polymerase ribozyme fitness (log ratio)” value was not above -4.2.
Regarding U7C A23C, the “polymerase ribozyme fitness (log ratio)” value is not above -4.2.
On to C8G A30U C36U U55A, for which the “polymerase ribozyme fitness (log ratio)” value is not above -4.2.
Take C8A A16G A24U A29U A47G C57A U61A C85U G141C: the “polymerase ribozyme fitness (log ratio)” value is not above -4.2.
In the case of C8U G83U A97G A142U, the “polymerase ribozyme fitness (log ratio)” value was -4.17.
As for C8U C57U A91G, the figure is not above -4.2.
For C8A G11C U15G C35G C85A G94U A150C, the “polymerase ribozyme fitness (log ratio)” value was not above -4.2.
Regarding C8G A21U A22G G86U U101C C118U, the “polymerase ribozyme fitness (log ratio)” value is not above -4.2.
For U7G A73G G83A A107C G117U, the “polymerase ribozyme fitness (log ratio)” value was not above -4.2.
With C8A C14U A22U A23C C85A U90C A98U U144G, the “polymerase ribozyme fitness (log ratio)” value is not above -4.2.
As for U9C A37G G42C A73U G92C C103U, the figure is not above -4.2.
On to U7A U31G G81C G84U C95U A107G G128U A137G, for which the “polymerase ribozyme fitness (log ratio)” value was not above -4.2.
For C8G C38U A47U C79A G83A G133U, the “polymerase ribozyme fitness (log ratio)” value is not above -4.2.
Take U7C A20C A89G C96A U111C C118U: the “polymerase ribozyme fitness (log ratio)” value is not above -4.2.
On to U9C C14G C27U A28U U31A C35A C87A, for which the “polymerase ribozyme fitness (log ratio)” value was not above -4.2.
Take C8U A30U C36G G83C A91G G143C: the “polymerase ribozyme fitness (log ratio)” value is not above -4.2.
For the variant C8A C14U A47C G50C U55A C85G U90G U144G, the “polymerase ribozyme fitness (log ratio)” value is not above -4.2.
Regarding C8U C85G, the “polymerase ribozyme fitness (log ratio)” value was -3.44.
Turning to U9C C18G A21G G50U G92U C125A U148C, the “polymerase ribozyme fitness (log ratio)” value was not above -4.2.
Consider U9A U13G G42U U61A A91U A106G A142C, for which the “polymerase ribozyme fitness (log ratio)” value is not above -4.2.
As for U9A G11A C14U A19G C76A U82G C103A C116U, the figure is not above -4.2.
With C8A A26C G83A A89U A98U, the “polymerase ribozyme fitness (log ratio)” value is not above -4.2.
Consider U9A G25U A26U U77A C79U G81C A122C, for which the “polymerase ribozyme fitness (log ratio)” value was not above -4.2.
As for C8U A24U C38G U56A U78C C87A U148C G152U, the “polymerase ribozyme fitness (log ratio)” value was not above -4.2.
For the variant C8A A37U A40C C51G C76U G84U, the “polymerase ribozyme fitness (log ratio)” value is not above -4.2.
As for U7C A17G A119U, the figure is -3.03; as for U7G A22C C85G G86C C105U, not above -4.2.
As for C8A U9A G59A A66C C79A C87A C99U C105U, the “polymerase ribozyme fitness (log ratio)” value was not above -4.2.
For U7C G46C U56A U77C G81A G86U G100A G133U, the “polymerase ribozyme fitness (log ratio)” value was not above -4.2.
Turning to U7G A24U C35U G83A C87A C105A A115G A147U, the “polymerase ribozyme fitness (log ratio)” value is not above -4.2.
In the case of C8U A23C A37U G71C C95U U135A, the “polymerase ribozyme fitness (log ratio)” value is not above -4.2.
In the case of C8G G48C G80U G84U C125U G141U, the “polymerase ribozyme fitness (log ratio)” value is not above -4.2.
On to U7A U31A A37C U55A G71A C72U G84U, for which the “polymerase ribozyme fitness (log ratio)” value is not above -4.2.
As for C8G C14G U33G U56A G83U C87U U102G A119G, the figure is not above -4.2; as for C8U A12C G59C G68A C85U C118G, not above -4.2.
Take C8G U9A A30C U102C: the “polymerase ribozyme fitness (log ratio)” value is not above -4.2.
On to C8U G81C, for which the “polymerase ribozyme fitness (log ratio)” value was -3.94.
As for C8A A40C G48C A60G G94C A97U C99A, the figure is not above -4.2.
With C8U U9A A12C A26U, the “polymerase ribozyme fitness (log ratio)” value was not above -4.2.
As for U9A A16U U61C C132U, the “polymerase ribozyme fitness (log ratio)” value was not above -4.2.
As for U7C C18U U61C C69A C93A C114U, the “polymerase ribozyme fitness (log ratio)” value was not above -4.2.
Take C8G G50C U55C G100A A115G U127C: the “polymerase ribozyme fitness (log ratio)” value is not above -4.2.
For C8G A28G C87U A150G, the “polymerase ribozyme fitness (log ratio)” value was not above -4.2.
On to U9A A12G C87U G100U C116A, for which the “polymerase ribozyme fitness (log ratio)” value was not above -4.2.
In the case of U9C A12C A21U U90A A142C U148A it was not above -4.2.
In the case of U7C A73G U82A G136C it was not above -4.2.
Consider U7C C72G C87A A91G A106U A110C C116U A142C, for which the “polymerase ribozyme fitness (log ratio)” value was not above -4.2.
As to C8U A17U C93U C99U U109G U135C, the “polymerase ribozyme fitness (log ratio)” value is not above -4.2.
Turning to C8A U13G G50C C76G C118A, the “polymerase ribozyme fitness (log ratio)” value is not above -4.2.
On to U9C A29U A39U G50A A119C, for which the “polymerase ribozyme fitness (log ratio)” value was not above -4.2.
As for U9C C14G, the “polymerase ribozyme fitness (log ratio)” value was not above -4.2.
Take C8A U44A C51A A66G C85U U130G: the “polymerase ribozyme fitness (log ratio)” value is not above -4.2.
